Data published in US5807535A, “Metal complexes of hydroxyaryl containing aminocarboxylic acid chelating agents” (Australian Nuclear Science & Technology Organisation, priority 1992, dated 1998).
This continues a long series; more values of the same kind are listed elsewhere. Each block holds one compound with its values, some of them ahead of it.

Test: Biodistribution of 67Ga complexes in mice
Format: in vivo, balb/c mice
Procedure: To ligand (50 μL, 10 mg/mL, 0.2 M NaOAc, […]) was added ^67 Ga citrate (18.5 MBq) and the resultant mixture diluted to 1 mL (0.2 M NaOAc, pH 7). The pH was adjusted to 12 with 1 M NaOH (20 μL) and heated at 40° C. for 40 min. The final volume was adjusted (to 5 mL) with saline and sterilised by filtering through a 0.22 μm filter.
Each animal was injected via tail vein with ^67 Ga complex (100 μL, ~3.7×10^5 Bq). Animals were sacrificed at various time intervals (5 animals per time point/6 time points). Data are illustrated in FIG. 26-30 and in Tables 13-17.
Each ^67 Ga-ligand complex has been evaluated in balb/c mice. […] (see FIG. 26-30).

biodistribution bladder (1 min): 0.08 % ID | biodistribution blood (1 min): 16.86 % ID | biodistribution caecum (1 min): 0.45 % ID | biodistribution colon (1 min): 0.53 % ID | biodistribution duodenum (1 min): 0.12 % ID | biodistribution heart (1 min): 0.41 % ID | biodistribution ileum (1 min): 0.25 % ID | biodistribution jejunum (1 min): 1.27 % ID | biodistribution lungs (1 min): 1.28 % ID | biodistribution ovaries (1 min): 0.07 % ID | biodistribution pancreas (1 min): 0.35 % ID | biodistribution salivary gl (1 min): 0.16 % ID | biodistribution stomach GL (1 min): 0.36 % ID | biodistribution stomach SQ (1 min): 0.08 % ID | biodistribution tail (1 min): 1.13 % ID | biodistribution bladder (3 min): 0.11 % ID | biodistribution blood (3 min): 9.81 % ID | biodistribution caecum (3 min): 0.26 % ID | biodistribution colon (3 min): 0.43 % ID | biodistribution duodenum (3 min): 0.09 % ID | biodistribution heart (3 min): 0.19 % ID | biodistribution ileum (3 min): 0.13 % ID | biodistribution jejunum (3 min): 0.69 % ID | biodistribution lungs (3 min): 0.83 % ID | biodistribution ovaries (3 min): 0.06 % ID | biodistribution pancreas (3 min): 0.16 % ID | biodistribution salivary gl (3 min): 0.11 % ID | biodistribution stomach GL (3 min): 0.19 % ID | biodistribution stomach SQ (3 min): 0.08 % ID | biodistribution tail (3 min): 1.50 % ID | biodistribution bladder (5 min): 0.09 % ID | biodistribution blood (5 min): 7.82 % ID | biodistribution caecum (5 min): 0.22 % ID | biodistribution colon (5 min): 0.37 % ID | biodistribution duodenum (5 min): 0.17 % ID | biodistribution heart (5 min): 0.15 % ID | biodistribution ileum (5 min): 0.11 % ID | biodistribution jejunum (5 min): 0.73 % ID | biodistribution lungs (5 min): 1.11 % ID | biodistribution ovaries (5 min): 0.07 % ID | biodistribution pancreas (5 min): 0.11 % ID | biodistribution salivary gl (5 min): 0.10 % ID | biodistribution stomach GL (5 min): 0.21 % ID | biodistribution stomach SQ (5 min): 0.11 % ID | biodistribution tail (5 min): 1.95 % ID | biodistribution bladder (10 min): 0.09 % ID | biodistribution blood (10 min): 3.52 % ID | biodistribution caecum (10 min): 0.17 % ID | biodistribution colon (10 min): 0.21 % ID | biodistribution duodenum (10 min): 0.24 % ID | biodistribution heart (10 min): 0.08 % ID | biodistribution ileum (10 min): 0.18 % ID | biodistribution jejunum (10 min): 1.73 % ID | biodistribution lungs (10 min): 0.46 % ID | biodistribution ovaries (10 min): 0.03 % ID | biodistribution pancreas (10 min): 0.07 % ID | biodistribution salivary gl (10 min): 0.07 % ID | biodistribution stomach GL (10 min): 0.18 % ID | biodistribution stomach SQ (10 min): 0.10 % ID | biodistribution tail (10 min): 1.48 % ID | biodistribution bladder (30 min): 0.03 % ID | biodistribution blood (30 min): 0.78 % ID | biodistribution caecum (30 min): 0.06 % ID | biodistribution colon (30 min): 0.08 % ID | biodistribution duodenum (30 min): 0.06 % ID | biodistribution heart (30 min): 0.01 % ID | biodistribution ileum (30 min): 0.11 % ID | biodistribution jejunum (30 min): 2.99 % ID | biodistribution lungs (30 min): 0.12 % ID | biodistribution ovaries (30 min): 0.01 % ID | biodistribution pancreas (30 min): 0.02 % ID | biodistribution salivary gl (30 min): 0.01 % ID | biodistribution stomach GL (30 min): 0.04 % ID | biodistribution stomach SQ (30 min): 0.02 % ID | biodistribution tail (30 min): 1.06 % ID | biodistribution bladder (120 min): 0.01 % ID | biodistribution blood (120 min): 0.35 % ID | biodistribution bone (120 min): 0.42 % ID | biodistribution caecum (120 min): 0.88 % ID | biodistribution colon (120 min): 0.24 % ID | biodistribution duodenum (120 min): 0.02 % ID | biodistribution heart (120 min): 0.01 % ID | biodistribution ileum (120 min): 0.66 % ID | biodistribution jejunum (120 min): 0.85 % ID | biodistribution lungs (120 min): 0.04 % ID | biodistribution ovaries (120 min): 0.00 % ID | biodistribution pancreas (120 min): 0.01 % ID | biodistribution salivary gl (120 min): 0.01 % ID | biodistribution stomach GL (120 min): 0.03 % ID | biodistribution stomach SQ (120 min): 0.02 % ID | biodistribution tail (120 min): 0.10 % ID
Compound: O=C(O)CN(CCN(CC(=O)O)CC(=O)Nc1ccccc1O)CC(=O)Nc1ccccc1O [Compound 1]

biodistribution bladder (1 min): 0.08 % ID | biodistribution blood (1 min): 17.45 % ID | biodistribution caecum (1 min): 0.42 % ID | biodistribution colon (1 min): 0.48 % ID | biodistribution duodenum (1 min): 0.13 % ID | biodistribution heart (1 min): 0.42 % ID | biodistribution ileum (1 min): 0.15 % ID | biodistribution jejunum (1 min): 1.42 % ID | biodistribution ovaries (1 min): 0.06 % ID | biodistribution pancreas (1 min): 0.34 % ID | biodistribution salivary gl (1 min): 0.11 % ID | biodistribution stomach GL (1 min): 0.26 % ID | biodistribution stomach SQ (1 min): 0.07 % ID | biodistribution tail (1 min): 0.00 % ID | biodistribution bladder (3 min): 0.06 % ID | biodistribution blood (3 min): 6.02 % ID | biodistribution caecum (3 min): 0.23 % ID | biodistribution colon (3 min): 0.28 % ID | biodistribution duodenum (3 min): 0.34 % ID | biodistribution heart (3 min): 0.14 % ID | biodistribution ileum (3 min): 0.11 % ID | biodistribution jejunum (3 min): 1.67 % ID | biodistribution ovaries (3 min): 0.05 % ID | biodistribution pancreas (3 min): 0.11 % ID | biodistribution salivary gl (3 min): 0.05 % ID | biodistribution stomach GL (3 min): 0.20 % ID | biodistribution stomach SQ (3 min): 0.08 % ID | biodistribution tail (3 min): 0.00 % ID | biodistribution bladder (5 min): 0.09 % ID | biodistribution blood (5 min): 3.31 % ID | biodistribution caecum (5 min): 0.15 % ID | biodistribution colon (5 min): 0.25 % ID | biodistribution duodenum (5 min): 0.67 % ID | biodistribution heart (5 min): 0.09 % ID | biodistribution ileum (5 min): 0.21 % ID | biodistribution jejunum (5 min): 3.68 % ID | biodistribution ovaries (5 min): 0.04 % ID | biodistribution pancreas (5 min): 0.10 % ID | biodistribution salivary gl (5 min): 0.02 % ID | biodistribution stomach GL (5 min): 0.53 % ID | biodistribution stomach SQ (5 min): 0.18 % ID | biodistribution tail (5 min): 0.00 % ID | biodistribution bladder (10 min): 0.03 % ID | biodistribution blood (10 min): 2.16 % ID | biodistribution caecum (10 min): 0.04 % ID | biodistribution colon (10 min): 0.10 % ID | biodistribution duodenum (10 min): 1.22 % ID | biodistribution heart (10 min): 0.03 % ID | biodistribution ileum (10 min): 0.03 % ID | biodistribution jejunum (10 min): 5.99 % ID | biodistribution ovaries (10 min): 0.01 % ID | biodistribution pancreas (10 min): 0.03 % ID | biodistribution salivary gl (10 min): 0.01 % ID | biodistribution stomach GL (10 min): 0.28 % ID | biodistribution stomach SQ (10 min): 0.25 % ID | biodistribution tail (10 min): 0.00 % ID | biodistribution bladder (30 min): 0.01 % ID | biodistribution blood (30 min): 3.20 % ID | biodistribution caecum (30 min): 0.20 % ID | biodistribution colon (30 min): 0.16 % ID | biodistribution duodenum (30 min): 0.31 % ID | biodistribution heart (30 min): 0.01 % ID | biodistribution ileum (30 min): 0.78 % ID | biodistribution jejunum (30 min): 6.64 % ID | biodistribution lungs (30 min): 0.06 % ID | biodistribution ovaries (30 min): 0.01 % ID | biodistribution pancreas (30 min): 0.08 % ID | biodistribution salivary gl (30 min): 0.00 % ID | biodistribution stomach GL (30 min): 0.11 % ID | biodistribution stomach SQ (30 min): 0.03 % ID | biodistribution tail (30 min): 0.56 % ID | biodistribution bladder (120 min): 0.00 % ID | biodistribution blood (120 min): 0.07 % ID | biodistribution caecum (120 min): 7.06 % ID | biodistribution colon (120 min): 2.03 % ID | biodistribution duodenum (120 min): 0.04 % ID | biodistribution heart (120 min): 0.00 % ID | biodistribution ileum (120 min): 0.28 % ID | biodistribution jejunum (120 min): 0.99 % ID | biodistribution lungs (120 min): 0.01 % ID | biodistribution ovaries (120 min): 0.00 % ID | biodistribution pancreas (120 min): 0.00 % ID | biodistribution salivary gl (120 min): 0.00 % ID | biodistribution stomach GL (120 min): 0.03 % ID | biodistribution stomach SQ (120 min): 0.03 % ID | biodistribution tail (120 min): 0.12 % ID
Compound: O=C(O)CN(CCN(CC(=O)O)CC(=O)Nc1ccc(Cl)cc1O)CC(=O)Nc1ccc(Cl)cc1O [Compound 2]
